Results: the supplement of paper PMC11417369
Some of the results follow.

Test system: PfAP2-HC AP2 domain (GST-tagged)
Assay: gcPBM binding intensity (ln(normalized median fluorescence intensity)); higher = stronger DNA binding
Method in brief: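 GST-fused DNA-binding domains of P. falciparum, expressed in E. coli, were applied at about 25 μg on average for 1 h to an Agilent 4 × 180k array of primer-extended double-stranded 36-bp intergenic genomic probes and negative controls. Binding intensity is the highest Masliner-normalised natural-log median intensity across replicate spots of either probe orientation, measured with Alexa488 anti-GST antibody and a 488 nm scan.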

Point of comparison: “AACAATTGGAATAACGCATGCATTTATAATATAGAA [TGCATGCA_site298]”, “gcPBM binding intensity (ln)” value 9.75. Against it:
- AAAAGCAAGTTCCAGGGTACATATATATGAAAAAAC [XGTACX_site2408] — higher, 9.82
- CCTAAAAAAAAGAAATGATATACATATGTATATATA [GTGCAC_negctrl_site100] — lower, 9.6
- TATTTAAGAATATGAAGTACATATATTATTTAAAAA [XGTACX_site7897] — lower, 9.44
- CATATAAATAAATACACACACACACGCCTTATAATT [CACACA_site7830] — higher, 11.6
- TATATAGGTATCATTACACACATGTATACTTATTTG [CACACA_site7864] — higher, 10.1
- TTTTTCTTTCTCTATTGTACACATGGAAACACATAA [XGTACX_site4601] — lower, 9.67
- TCTTGTTTTCAAATATGTACATAGAATAGACATTTT [XGTACX_site684] — lower, 9.24
- AAATATATAAAATATACACACAGTAATATATATATA [CACACA_site1385] — higher, 9.9
- AAGTTTTATTTAAATTGTACTAAAATTTTTATATTA [XGTACX_site7065] — lower, 9.48
- TATATATAAATATTCAGTACATAGTATTATTAAGTA [XGTACX_site1980] — lower, 9.73
- ATAAAATGAACAAACACACACACATATATATATATA [CACACA_site2402] — higher, 10.9
- TCTCAAGTTGTTAAAAAATAAAAACAATAAATCTAA [CACACA_negctrl_site165] — lower, 9.41
- TACAAAAAAAAAAAATAGATAAAATAATAATCAAAT [TGCATGCA_negctrl_site524] — lower, 9.61
- ATATATTGAACATATTGTACATTTTGTTAATATTTT [XGTACX_site7622] — lower, 9.65
- TGAATATTCCTATGCACACAAATTAAAATACATAAT [CACACA_site4403] — higher, 9.88
- ACAAATTTATACTTAAAACACACGTAATCATTTATA [CACACA_site1636] — lower, 9.63
- TAAAATAATTTATGCATACACACATATATATATATA [CACACA_site4021] — higher, 9.84
- CAATTTTTTAAATGCACACAAAAGGAATAAATAAAT [CACACA_site544] — higher, 9.8
- AAGAAGAAATGCTTTGCATGCAAATTTTATGCCAAC [TGCATGCA_site721] — lower, 9.71
- AGACAAAATGTTTGAAGTACTTTTTATCAAATTAAA [XGTACX_site8885] — lower, 9.51
- AAAAAAAAAAAACACACACACACACCCATACATACA [CACACA_site707] — higher, 11.4
- ATATATATTTATATTTGTACGAATTAAAATTTTTTA [XGTACX_site5200] — lower, 9.49
- ATTTAAAACAAAAGTAGTACGTCTAATAAATTCAAC [XGTACX_site4344] — lower, 9.64
- TTATCAATAAAATGCACACACTGTAATATTATTAAA [CACACA_site6055] — higher, 9.78
- ATAGCTTTTATTTAAAGTACAAAAAGGATGTTGAAA [XGTACX_site3810] — lower, 9.64
- TTAATTATTATATAAGTGCAATAATAAAAAGTTGTA [GTGCAC_site9552] — lower, 9.58
- TTGTTAATAAATAAATAAATAAATATATTTATATAT [GTGCAC_negctrl_site271] — lower, 9.33
- TGATTTTTTCATATTCTACACACGTGAACAAATGTG [CACACA_site8987] — lower, 9.71
- TTAAGAATATCTTAGAGTACATTTTATCATCTTAAA [XGTACX_site8298] — lower, 9.3
- TCTTTTTAAATTACTATAATACATTCATAAATTATA [GTGCAC_negctrl_site448] — lower, 9.54
- AATTTATTTTTTTAATGTACATATGGTATAAATATA [XGTACX_site8012] — lower, 9.36
- TGTTGATTTCTCAAATGTACTTTACTTTTCTTCAGA [XGTACX_site7916] — lower, 9.44
- TTTTTTTTTTTTAATTGTACATTTTATATAAACTTT [XGTACX_site6806] — lower, 9.61
- AATATATATATATGTACACACTCCAATACATATACA [CACACA_site2682] — higher, 9.83
- TATATGTATGTATGTACACACAAAAAATGGAATATA [CACACA_site3717] — higher, 10.1
- TTTTTTTATTTTATAAAGCAAAAATAAGAATGAAAT [XGTACX_negctrl_site270] — lower, 9.28
- AGGGAATAAGTAAGGTGTACATAATTATGTTACTTT [XGTACX_site6152] — higher, 9.76
- TACGAATTAAAAAAGAGTACAAATAAAATATCTACA [XGTACX_site7412] — lower, 9.59
- CATACATACATATATACACACATATATAATAATATA [CACACA_site2678] — higher, 10.1
- AATTAGCTCAAAGGTTGTACAAATATATTTTAATGG [XGTACX_site2352] — lower, 9.6
- TTTTAAACACCAATCAAAAAAATATAAATATAAATA [TGCATGCA_negctrl_site552] — lower, 9.48
- AATATAAATACTCCTACACACATATAAATATAAATA [CACACA_site7419] — higher, 9.96
- TCCACATTAATGTAATGTACAAAATTAGAAAATAAA [XGTACX_site6287] — lower, 9.51
- TTTTGATTAAGTGAATTTTTTTATTTATATAAATAT [TGCATGCA_negctrl_site479] — lower, 9.56
- TTACATTGTAAAAAGTGTACATATAATTTAATTAAT [XGTACX_site1834] — lower, 9.67
- ATGTAGACTGAAACCACACACACATATATATATATA [CACACA_site606] — higher, 10.8
- GGATTACAAATAGGTTGTACGTTTTTTTTTTTTTCT [XGTACX_site3605] — lower, 9.65
- AAAAAAAATAATTTGCGTACATAAAAATTTATAGGA [XGTACX_site3016] — lower, 9.58
- AAATTTTTTTTTGTCATATGATGTTTGAACCCAAAT [CACACA_negctrl_site1659] — lower, 9.49
- TCCGTATATTTATACGCATGCATTATGAACATTGTT [TGCATGCA_site613] — lower, 9.71
- TATATTATATATATATGTACATATGGCAAAACATTA [XGTACX_site7958] — lower, 9.62
- AAAAAAAAAAAAAAATGTACCCATAAAATAAGCATT [XGTACX_site8576] — higher, 9.77
- AATCACAACGAACACACACACAAAAAAAAAAAAAAA [CACACA_site6790] — higher, 10.1
- TTTTTTACAATTAACACACTCAAAAATAATATTAAA [CACACA_site5198] — lower, 9.41
- AATTTTTTAAATGTGTGTACATATTATTTAAATAAT [XGTACX_site5967] — lower, 9.63
